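Exposure lasted 48 hours, with cells grown in 96-well plates and compounds tested at five concentrations. GI50 = concentration required for 50% inhibition of growth.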 Activity calls are given as the source filed them. Cut-off read from the data, not from the text of the source: active = GI50 up to about 1.1 µM and inactive = higher.

The test system of this assay is NCI-H322M. The assay can be described thus: inhibition of tumour cell growth, NCI panel, 48 h.
In the case of `CC(=O)c1ccc2c(c1)CC1(C2)Cc2cc3c(cc2C1)C(=O)CC3` (configuration not stated), the GI50 is active: 0.92 µM.

Take `CC(=O)OC1C(O)C(C)OC(OC2C(OC(=O)C3CCC4C(C3)OC3(CC(OC(=O)/C=C/c5ccccc5)C(C)CO3)C43CO3)OC(C)C(O)C2OC(C)=O)C1O` (configuration not stated): the GI50 is active: 0.0157 µM.

With `NS(=O)(=O)c1ccc(NCc2cnc3ccccc3c2)cc1`, the GI50 was inactive: > 100 µM.

As for `CCOP(=O)(OCC)/C(C#N)=C(\C)c1ccco1`, the GI50 is inactive: > 10 µM.

As for `CSc1cc(=O)n2c3ccccc3c3ccnc1c32`, the GI50 was inactive: > 100 µM.

Consider `COC(=O)C1OC(O[C@H]2CC[C@]3(C)[C@H]4CC=C5[C@@H]6CC(C)(C)CC[C@]6(C(=O)OC6OCC(O)C(O)C6OC6OC(C)C(OC7OCC(O)C(O)C7O)C(OC7OCC(O)(CO)C7O)C6O)[C@H](O)C[C@@]5(C)[C@]4(C)CC[C@H]3C2(C)C)C(O)C(O)C1O` (some centres not stated), for which the GI50 was inactive: 2.39 µM.

Consider `c1cncc(-c2ncc3cccnc3n2)c1`, for which the GI50 was inactive: > 100 µM.

`O=C(c1nc2ccc(Cl)cc2[nH]c1=O)C(O)c1ccco1` (configuration not stated): the GI50 was inactive: > 100 µM.

In the case of `O=C(O)[C@@H]1C2CC([C@@H]1C(=O)O)[C@H](N1C(=O)CCC1=O)[C@@H]2Br` (some centres not stated), the GI50 is inactive: > 100 µM.

Take `COc1nc2ccc(CNc3ccc(C(=O)NC(CCC(=O)O)C(=O)O)cc3)cc2nc1OC` (configuration not stated): the GI50 is inactive: > 100 µM.

Consider `Cc1ccc(N2C(=O)C3c4[nH]c5ccc(C)cc5c4C4CCC(C(C)(C)C)CC4C3C2=O)cc1` (configuration not stated), for which the GI50 was inactive: 17.4 µM.

With `COc1nc(=O)n(COC(CO)CN2C(=O)c3ccccc3C2=O)cc1Cc1cccc(OCc2ccccc2)c1` (configuration not stated), the GI50 was inactive: 24.8 µM.

For `N#CCc1nc(Cc2ccccc2)n[nH]1`, the GI50 is inactive: > 100 µM.

With `Cc1c2c(cc3c(=O)ccn(CCN(C)C)c13)c(=O)ccn2CCN(C)C`, the GI50 was inactive: 6.76 µM.

As for `O[C@@]1(C#Cc2ccc3c(c2)OCO3)CCC[C@H]1NCc1ccccc1`, the GI50 is inactive: 31.4 µM.

As for `COc1cc(/C=C(\NC(=O)c2ccccc2)c2nc3c(O)nc(S)nc3[nH]2)cc(OC)c1OC`, the GI50 is inactive: > 100 µM.

As for `Clc1ccc(C2=NNC(c3cccc(Cl)c3)C2)cc1` (configuration not stated), the GI50 is inactive: 40.5 µM.

With `c1ccc(-c2cc(-c3cccs3)c(-c3cccs3)o2)cc1`, the GI50 is inactive: > 100 µM.

`N#CC1(C#N)C(C#N)(C#N)C1(C#N)C(N)=O`: the GI50 is inactive: > 100 µM.

As for `CCCCC[C@H]1CC=CC(=O)O1`, the GI50 was inactive: 9.12 µM.

`Cc1cc(C)nc(NS(=O)(=O)c2ccc(Nc3nncc(=O)n3N)cc2)n1`: the GI50 is inactive: 33.1 µM.

Consider `CC(C)(C)OC(=O)N1C/C=C\C(=O)C2(OCCO2)c2ccccc21`, for which the GI50 is inactive: 78.5 µM.

Consider `Nc1ccc(Oc2ccc(C34CC5CC6C3CC3CC4C(C5)C6(c4ccc(Oc5ccc(N)cc5)cc4)C3)cc2)cc1`, for which the GI50 is inactive: 12.4 µM.

Turning to `CC1(C=O)CCC23COC4(CCC5C6(C)CCC(OC7OCC(OC8OC(CO)C(O)C(OC9OC(CO)C(O)C(O)C9O)C8OC8OCC(O)C(O)C8O)C(O)C7OC7OC(CO)C(O)C(O)C7O)C(C)(C)C6CCC5(C)C4(C)CC2O)C3C1` (configuration not stated), the GI50 is active: 0.979 µM.

For the compound `CCOC(=O)/C(C#N)=N\Nc1ccc(-n2c(C)nc3ccccc3c2=O)cc1`, the GI50 is inactive: > 100 µM.

Regarding `CN(N=O)C(=O)NNC(=O)N(C)N=O`, the GI50 is inactive: > 100 µM.

Turning to `CN1Cc2cc3cc4c(cc3nc2N(C)C1)OCCO4`, the GI50 was inactive: > 100 µM.

In the case of `CCCCCCCCCCCCCP(=O)(O)O`, the GI50 was inactive: > 100 µM.

For the compound `N#Cc1ncn(CCO)c1N`, the GI50 is inactive: > 100 µM.

On to `O=C1c2cccc3cc4ccccc4c(c23)C(=O)N1CCCNCCNCCCN1C(=O)c2cccc3cc4ccccc4c(c23)C1=O`, for which the GI50 is active: 0.0262 µM.

Turning to `Cc1nc2ccccc2n1CCc1nc2ccccc2s1`, the GI50 is inactive: > 100 µM.

Consider `N#Cc1c(N)nc(SCc2ccccc2)c(C#N)c1-c1ccc(O)cc1`, for which the GI50 is inactive: 12.9 µM.

For `C#C/C=C/CC1OC(C(Br)CC)CC(Br)C2CC1O2` (configuration not stated), the GI50 was inactive: 50 µM.

`COC1OC(=O)[C@H]2O[N+]([O-])=C(C)[C@@H]12` (some centres not stated): the GI50 was inactive: > 100 µM.

Take `O=c1c2cc(Br)ccc2nc(CNc2ccccc2)n1-c1ccccc1`: the GI50 was inactive: 24.7 µM.

For `NC(=O)CNC(=O)[C@@H]1C[C@@H](OCCC(=O)O)CN1C(=O)OCc1ccccc1`, the GI50 was inactive: > 100 µM.

As to `CN(C)S(=O)(=O)/N=C/c1cccc(/C=N/S(=O)(=O)N(C)C)c1`, the GI50 is inactive: > 100 µM.

Regarding `CCOC(=O)c1ccc(NC(=O)O/N=C(/Cl)C(C)C)cc1`, the GI50 is inactive: 16.7 µM.

For `CCCCn1c(C)c(C(=O)CC)c(C(=O)NCCN2CCN(c3ccccc3Cl)CC2)c1C`, the GI50 was inactive: 17.4 µM.

With `C/C(=N/NC(=S)N(C)CCc1ccccn1)c1cnccn1`, the GI50 is active: < 0.0231 µM.

With `N#CC1(C#N)NC(c2cccnc2)C(C#N)(C#N)NC1c1cccnc1` (configuration not stated), the GI50 was inactive: > 100 µM.

With `CC(O)CNC1=CC(=O)C(=O)c2ccccc21` (configuration not stated), the GI50 is inactive: 16.9 µM.

Consider `COc1ccc(/C=N/n2c(=O)[nH]c3ccccc3c2=O)cc1`, for which the GI50 is inactive: > 100 µM.

For the compound `CC1(C)CC(=O)C(C(=O)C(=O)NC2=C(Cl)C(=O)c3ccccc3C2=O)C(=O)C1`, the GI50 was inactive: > 100 µM.

For the compound `CCNC(=S)N/N=C(\C)c1cccc(C)n1`, the GI50 was inactive: 58.5 µM.

For the compound `Nc1nnc(-c2ccco2)c(-c2ccco2)n1`, the GI50 is inactive: > 100 µM.

Regarding `C=C1CC(c2ccc(O)c(OC)c2)Oc2c(OC)cccc21` (configuration not stated), the GI50 is inactive: 61.7 µM.

Consider `CCOC(=O)c1c[nH]c(C(=O)OCC)c1-c1cccn1-c1ccccc1`, for which the GI50 is inactive: 21.4 µM.

As for `O=CC12CCCN1CCC2`, the GI50 was inactive: > 100 µM.

Regarding `NC(=O)C(=Cc1ccc(C(O)P(=O)(O)O)cc1)C(N)=O` (configuration not stated), the GI50 was inactive: > 100 µM.

For the compound `CSc1nc(=O)cnn1C`, the GI50 was inactive: > 100 µM.

Regarding `COc1ccc(NCn2nc(CCCCCCCCc3nn(CNc4ccc(OC)cc4)c(=S)o3)oc2=S)cc1`, the GI50 was inactive: > 100 µM.

For the compound `CN(CCCN1CCCC1)CCCN(C)C(=O)Cc1ccc(Cl)c(Cl)c1`, the GI50 is inactive: 14.8 µM.

In the case of `O=C1OC2(OC2c2ccc(Cl)cc2)c2ccccc21` (configuration not stated), the GI50 is inactive: > 100 µM.

`Cc1ccc(S(=O)(=O)NNCNC(=O)c2ccccc2)cc1`: the GI50 was inactive: > 100 µM.

Consider `Cc1nnc(CC#N)n1NC(=O)CC#N`, for which the GI50 is inactive: > 100 µM.

Consider `O=C(N/N=C\c1ccc([N+](=O)[O-])s1)c1ccncc1`, for which the GI50 was inactive: 24.8 µM.

In the case of `CC(C)(c1ccccc1)c1ccc(OC#N)cc1`, the GI50 is inactive: > 100 µM.

Regarding `COc1ccc(OCC(=O)O)c(C(=O)CCC(=O)O)c1`, the GI50 was inactive: > 100 µM.

Regarding `CC/C(Cl)=N\OC(=O)Nc1ccc(F)c(Cl)c1`, the GI50 is inactive: 17.5 µM.

`N#Cc1ccccc1NC(=O)/C(=N\N)C(C(=O)c1ccncc1)C1OC(=O)c2ccccc21` (configuration not stated): the GI50 is inactive: > 100 µM.

For the compound `COc1cccc(SSc2cccc(OC)c2C(=O)O)c1C(=O)O`, the GI50 was inactive: > 100 µM.

For `O=C1C=CN(C2OC(CO)C(O)C2O)C(=O)C1` (configuration not stated), the GI50 was inactive: 231 µM.

Regarding `C[P+]1(c2ccccc2)CCCCC1`, the GI50 was inactive: > 100 µM.

For the compound `O=c1oc2nc(-c3ccccc3)cc(C(F)(F)F)c2n1Cc1ccccc1`, the GI50 is inactive: 4.19 µM.

In the case of `O=C(Nc1ccccc1)c1cc(S(=O)(=O)Nc2n[nH]c(=O)n2-c2ccccc2)c(S)cc1Cl`, the GI50 was inactive: > 100 µM.

As to `Cc1nc(Nc2ccc([N+](=O)[O-])cc2)sc1C(=O)/C=C/c1ccc(N(C)C)cc1`, the GI50 is inactive: 43.5 µM.

`COC(=O)C(NC(=O)c1ccccc1)c1ccco1` (configuration not stated): the GI50 was inactive: > 100 µM.

For `COc1ccc(C(=O)/C=C/c2ccc(OCC(=O)O)cc2)cc1`, the GI50 was inactive: 51.3 µM.

On to `CN(CCCCN(C)CCc1ccc(Cl)c(Cl)c1)CCCCN1CCCC1`, for which the GI50 is inactive: 1.59 µM.

For the compound `O=C1[C@H](O)[C@@H]2C(O)O[C@H]3[C@@H]2N1C[C@H]3[Si](c1ccccc1)(c1ccccc1)c1ccccc1` (some centres not stated), the GI50 is inactive: > 100 µM.

Consider `CN(C)CCC(CCN(C)C)=NOC(=O)c1ccccc1`, for which the GI50 is inactive: > 100 µM.

In the case of `O=C1c2c(n(Cc3ccccc3)c(=O)n2Cc2ccccc2)C(=O)N1Cc1ccccc1`, the GI50 is inactive: 33.4 µM.

Turning to `CCCCCCCCCCCCCCNCC(OCC)OCC`, the GI50 is inactive: 19.5 µM.

For the compound `Cc1nnc(N)nc1/C=C\c1ccc(N(C)C)cc1`, the GI50 is inactive: 25.5 µM.

In the case of `Cc1c(C2=NN=C(/N=N/c3c(O)cccc3O)/C2=C/c2ccccc2)c(=O)n(-c2ccccc2)n1C`, the GI50 is inactive: > 100 µM.

On to `O=S(=O)(O)c1cc2ccc1/C=C\c1ccc(cc1S(=O)(=O)O)/N=N\c1ccc(c(S(=O)(=O)O)c1)/C=C\c1ccc(cc1S(=O)(=O)O)/N=N\2`, for which the GI50 was inactive: > 100 µM.

Consider `CCN1C[C@]2(C)CC[C@H](OC)C34C5C[C@@H]6[C@@H](OC)C[C@@](OC)(C5[C@H]6OCc5ccccc5)C(C13)[C@H](OC(C)=O)[C@@H]42` (some centres not stated), for which the GI50 is inactive: > 100 µM.

On to `COC(=O)CC[C@]12C[C@]13CC[C@]1(C)C4C(C)C[C@]5(CC(C)C(=O)O5)OC4CC1(C)C3CCC2C(C)(C)O` (some centres not stated), for which the GI50 was inactive: > 100 µM.

For the compound `COC(=O)[C@@]12OC[C@]34C([C@@H](O)C1O)[C@@]1(C)CC(=O)C(O)=C(C)C1C[C@H]3OC(=O)[C@H](OC(=O)/C=C(/c1ccccc1)C(F)(F)F)[C@H]42` (some centres not stated), the GI50 was inactive: 11.4 µM.

With `CN1N=C2c3ccccc3CC[C@H]2C1c1ccccc1` (some centres not stated), the GI50 was inactive: 68.9 µM.

In the case of `COc1cc2c(cc1O)[C@H](C)C(c1ccc(Cl)cc1)O2` (some centres not stated), the GI50 was inactive: 24 µM.

For the origin of these results see ChEMBL document CHEMBL1201862, “PubChem BioAssay data set” (2004).
